Laboratory results taken from PubChem BioAssay AID1347165 (National Center for Advancing Translational Sciences (NCATS), 2019).
Screen size: about 220,000 compounds; about 5,700 (2.6%) were called active. The shares of active, inactive and inconclusive entries below differ from those in the screen. Calls come from the whole dose curve; as a rule, active = well fitted inhibition curve with a large enough effect; inconclusive = small, poorly fitted or top-dose-only effect; inactive = no such curve, though single readings can be large or run the other way. Potencies beside an inconclusive call are fits to weak or partial responses and may not hold up.

Biological target: Lysine-specific demethylase 5B (Homo sapiens) (UniProt Q9UGL1)
Chain of UniProt Q9UGL1 (Q9UGL1 whole entry, looked up): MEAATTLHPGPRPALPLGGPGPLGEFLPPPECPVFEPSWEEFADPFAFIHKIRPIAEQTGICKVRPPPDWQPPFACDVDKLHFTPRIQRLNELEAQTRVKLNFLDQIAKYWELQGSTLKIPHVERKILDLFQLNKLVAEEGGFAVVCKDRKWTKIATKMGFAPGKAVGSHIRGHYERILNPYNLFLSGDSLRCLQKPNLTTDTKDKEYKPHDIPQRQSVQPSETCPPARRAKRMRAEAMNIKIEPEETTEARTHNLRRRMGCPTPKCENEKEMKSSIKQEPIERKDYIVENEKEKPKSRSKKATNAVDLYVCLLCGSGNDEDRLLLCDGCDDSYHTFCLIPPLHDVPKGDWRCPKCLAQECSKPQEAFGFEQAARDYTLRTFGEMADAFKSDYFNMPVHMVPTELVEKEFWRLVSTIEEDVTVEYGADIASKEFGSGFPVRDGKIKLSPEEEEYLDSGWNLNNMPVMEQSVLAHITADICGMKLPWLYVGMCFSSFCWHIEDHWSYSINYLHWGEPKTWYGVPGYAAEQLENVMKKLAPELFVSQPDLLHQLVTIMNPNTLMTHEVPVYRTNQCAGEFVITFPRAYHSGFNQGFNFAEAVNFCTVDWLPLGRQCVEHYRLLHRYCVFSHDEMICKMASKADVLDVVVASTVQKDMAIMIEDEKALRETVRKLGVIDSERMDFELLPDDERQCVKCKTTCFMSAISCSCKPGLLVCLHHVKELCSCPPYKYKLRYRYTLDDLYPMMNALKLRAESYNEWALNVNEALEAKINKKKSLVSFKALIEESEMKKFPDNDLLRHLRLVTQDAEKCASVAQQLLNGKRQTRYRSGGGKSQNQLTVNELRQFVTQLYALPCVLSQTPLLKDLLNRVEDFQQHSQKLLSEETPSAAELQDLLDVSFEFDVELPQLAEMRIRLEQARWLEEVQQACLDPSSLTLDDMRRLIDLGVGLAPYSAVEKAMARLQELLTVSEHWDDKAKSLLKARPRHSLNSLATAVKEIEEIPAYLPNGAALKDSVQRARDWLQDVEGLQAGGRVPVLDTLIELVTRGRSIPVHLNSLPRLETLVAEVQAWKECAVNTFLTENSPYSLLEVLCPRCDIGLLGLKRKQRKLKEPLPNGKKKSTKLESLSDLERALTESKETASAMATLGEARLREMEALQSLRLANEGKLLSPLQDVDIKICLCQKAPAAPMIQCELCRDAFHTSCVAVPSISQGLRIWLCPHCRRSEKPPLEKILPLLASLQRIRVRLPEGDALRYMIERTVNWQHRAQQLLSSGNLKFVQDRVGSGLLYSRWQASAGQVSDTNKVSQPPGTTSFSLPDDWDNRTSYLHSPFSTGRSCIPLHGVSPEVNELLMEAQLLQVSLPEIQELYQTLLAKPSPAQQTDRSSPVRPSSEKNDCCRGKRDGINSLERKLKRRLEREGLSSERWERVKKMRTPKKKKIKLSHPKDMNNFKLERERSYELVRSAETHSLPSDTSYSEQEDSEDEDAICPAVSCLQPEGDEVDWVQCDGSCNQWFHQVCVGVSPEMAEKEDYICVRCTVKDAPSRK
Assay: Primary screen for KDM5B Histone Demethylases FDH-coupled qHTS; note: nearly all actives have a fitted effect of over 70% in size
Details: FDH-coupled NADH fluorescence (FDH is formaldehyde dehydrogenase); series mostly up to 57.7 µM
Procedure, shortened: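 Measured: NADH fluorescence change, 30 min, RT. System: KDM5BΔAP 200 nM final, H3K4me3 peptide, α-KG, Fe(II), ascorbate, NAD⁺ plus FDH, pH 7.5 HEPES. Compounds: titrated, 10 min pre-incubation with enzyme.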
Potency is the fitted concentration of half-maximal effect; tags give direction and shape of the fitted curve.

Compound	Potency
O=S(=O)(Cc1csc(-c2ccccc2)n1)Cc1ccccc1F	inactive
CCOc1ccc(-c2nc(C3CC(=O)N(c4ccc(F)c(Cl)c4)C3)no2)cc1 (stereo unspecified)	inconclusive: 20 µM [inhibitor, partial curve]
COc1ccc(NC(=O)c2cc3sc(C)c(CN4CCCCC4)c3[nH]2)cc1OC	inactive
CCc1c(C)sc(NC(=O)c2ccccc2)c1C#N	inconclusive: 1.58 µM [inhibitor, partial curve, poor fit]
O=C1Nc2ccccc2C12CN(Cc1cncs1)C2	inactive
Cc1noc(C)c1-c1cc2c(cc(C)n2C)c(-c2ccc(CO)cc2)n1	inactive
CSc1ccc(C2CC(C)=NN2c2nc(-c3ccccc3)cs2)cc1 (stereo unspecified)	inconclusive: 8.91 µM [inhibitor, full curve, poor fit]
COc1ccc(-c2cccc(COc3cnc4c(ccn4CC(=O)O)c3)c2)c(C)c1	inconclusive: 39.8 µM [inhibitor, partial curve, poor fit]
Cc1ccccc1-c1noc(CNC(C)c2ccc(-n3cncn3)cc2)n1 (stereo unspecified)	inactive
COCCN(Cc1ccco1)C(=O)c1ccc(S(C)(=O)=O)cc1	inactive
O=C(NC1CCCCC1)c1ccc(Cn2c(SCc3ccccc3)nc3cccnc32)cc1	inactive
Cc1cc(C)c2[nH]c(C(=O)N(C)Cc3ccc4nsnc4c3)c(C)c2c1	inactive
FC(F)(F)c1ccc(CN2CCNc3cc(Nc4ccccc4)ncc3C2)cc1	inconclusive: 35.5 µM [inhibitor, partial curve, poor fit]
Cc1ccc(CN2CCCC(c3nc(-c4cccnc4)no3)CCNC(=O)CC2)s1 (stereo unspecified)	inactive
COc1ccc(C(=O)N2c3nc(-c4ccco4)nn3C3(CCCCC3)[C@@H]3CCCC[C@@H]32)cc1OC	inconclusive: 25.1 µM [inhibitor, single point]
COc1ccc(-c2cnc3[nH]cc(CC(=O)Nc4cccnc4)c3c2)cc1	active: 39.8 µM
Cc1ccn2cc(CNC(=O)Cc3cn(C)c4ccccc34)nc2c1	inactive
O=C(c1ccccc1)N1CCN(Cc2c[nH]c3ccccc23)CC1	inconclusive: 11.2 µM [inhibitor, partial curve, poor fit]
Cc1ccc(C)n1-c1c(C(=O)NCCN2CCN(C)CC2)sc2ncccc12	inconclusive: 22.4 µM [inhibitor, partial curve, poor fit]
O=C(c1ccccc1Cl)N1CCCN(c2nc3ncccc3o2)CC1	inconclusive: 22.4 µM [inhibitor, single point]
O=C(NCc1nnc2n1C(C(=O)N1CCN(c3ncccn3)CC1)CC2)c1ccccc1 (stereo unspecified)	inconclusive: 56.2 µM [inhibitor, partial curve, poor fit]
